We go through 50 compounds from PMC6919601, “Identification of Plasmodium dipeptidyl aminopeptidase allosteric inhibitors by high throughput screening” (PLoS ONE, 2019).

Each structure is given as a SMILES string. Screen size: about 110,000 compounds; about 230 (0.21%) showed an effect of 50% or more. The list shows a part of the results.
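Note: 30 min substrate incubation versus DMSO and 10 µM JCP410 controls.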

For the test, the target named is DPAP1 (Plasmodium falciparum, UniProt Q8IIJ9). Description: primary screen, percent inhibition; read by cleavage of a fluorogenic dipeptide substrate; higher = more effect of the substance. Also noted: species or system P. falciparum D10 trophozoite lysates; single well.
DPAP1, sequence (Q8IIJ9 whole entry, looked up): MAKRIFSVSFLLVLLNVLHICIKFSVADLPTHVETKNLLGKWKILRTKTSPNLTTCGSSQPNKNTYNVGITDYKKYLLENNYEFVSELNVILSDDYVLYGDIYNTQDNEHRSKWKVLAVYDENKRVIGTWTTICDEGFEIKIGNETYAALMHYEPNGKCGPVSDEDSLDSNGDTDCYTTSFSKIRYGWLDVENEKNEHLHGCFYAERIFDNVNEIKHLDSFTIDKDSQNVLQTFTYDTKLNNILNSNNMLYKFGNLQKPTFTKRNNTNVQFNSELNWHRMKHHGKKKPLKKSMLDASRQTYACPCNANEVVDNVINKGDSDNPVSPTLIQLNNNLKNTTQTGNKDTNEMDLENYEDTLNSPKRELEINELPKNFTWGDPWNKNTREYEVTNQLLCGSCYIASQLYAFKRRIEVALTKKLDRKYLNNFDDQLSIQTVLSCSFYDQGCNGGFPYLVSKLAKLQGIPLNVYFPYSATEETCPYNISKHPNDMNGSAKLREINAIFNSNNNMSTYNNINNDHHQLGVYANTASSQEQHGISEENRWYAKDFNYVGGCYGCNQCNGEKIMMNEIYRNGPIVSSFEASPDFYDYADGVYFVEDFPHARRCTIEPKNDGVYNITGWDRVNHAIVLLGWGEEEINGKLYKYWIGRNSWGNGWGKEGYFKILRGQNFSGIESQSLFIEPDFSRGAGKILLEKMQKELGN
As for `O=C(Cn1cc(C(=O)C2CC2)c2ccccc21)NCC1CCCO1` (centres unmarked), the “% Inhibition @ 10 uM” value was -1.82%.
Regarding `CCC1(C#N)c2ccccc2C=CN1C(=O)c1ccccc1` (centres unmarked), the “% Inhibition @ 10 uM” value worked out at 3.91%.
As for `O=C(Nc1ccc(-c2cn3ccsc3n2)cc1)c1ccc(Cl)cc1`, the “% Inhibition @ 10 uM” value was -0.366%.
Take `Cc1cccc(C(CC(=O)N2CCCC2)c2ccccc2)c1O` (centres unmarked): the “% Inhibition @ 10 uM” value is -1.1%.
As to `CN(c1nnc(NC(=O)NCc2ccc(F)cc2)s1)C1CCCCC1`, the “% Inhibition @ 10 uM” value is listed as 2.27%.
As for `COc1ccc2c(c1)Cc1sc(NC(=O)C34CC5CC(CC(C5)C3)C4)nc1-2`, the “% Inhibition @ 10 uM” value was determined as 3.25%.
On to `O=C1CC(c2nc3cc4ccccc4cc3[nH]2)CN1c1cccc(Cl)c1` (centres unmarked), for which the “% Inhibition @ 10 uM” value is given as -2.87%.
Regarding `Cc1ccc(S(=O)(=O)CC(=O)c2cc3ccccc3oc2=O)cc1`, the “% Inhibition @ 10 uM” value turned out to be 6.1%.
On to `CCOC(=O)N1CCC(NC(=O)c2ccc(CS(=O)(=O)c3ccccc3C)o2)CC1`, for which the “% Inhibition @ 10 uM” value is on record as 2.14%.
In the case of `Cc1ccc(NC(=O)CN(c2ccc(Cl)cc2C)S(C)(=O)=O)c(C)c1`, the “% Inhibition @ 10 uM” value was found to be 4.05%.
The figure for `CSC1=C(C#N)C2(CCCCC2)C2=C(O)CC(C)(C)CC2=N1` is -0.712%.
For `CCN1C(=O)c2cccc3c(S(=O)(=O)N4CCCC4)ccc1c23`, the “% Inhibition @ 10 uM” value was -1.22%.
`NC1=NC(c2ccco2)n2c(nc3ccccc32)N1` (centres unmarked): the “% Inhibition @ 10 uM” value is -3.13%.
`COC1CCCCC1N1CCN(C(=O)c2ccco2)CC1` (centres unmarked): the “% Inhibition @ 10 uM” value is reported as -7.34%.
For the compound `CCOc1ccccc1CNC(=O)c1cc2c(Cl)ccc3c2n1CCO3`, the “% Inhibition @ 10 uM” value was found to be 3.8%.
For the compound `O=C(Cc1ccc(Cl)cc1)NCc1cccnc1`, the “% Inhibition @ 10 uM” value is given as 1.59%.
As for `CCOC(=O)c1c(C)nc(C)c2c(=O)oc3c(OC)cccc3c12`, the “% Inhibition @ 10 uM” value is listed as -0.0678%.
Next, `CCN(CC)CCNc1nc2nonc2nc1NCCN(CC)CC`: -1.19%; `CC(=O)/C=C/c1cn(C(C)=O)c2ccccc12`: 1.83%; `Nc1ncc(Br)cc1S(=O)(=O)NCCC(=O)NCC1CCCO1` (centres unmarked): 0.813%.
Turning to `N#CC1=C(SCC(=O)Nc2ccc(Br)cc2)NC(=O)C(C#N)C12CCCCC2` (centres unmarked), the “% Inhibition @ 10 uM” value is -2.47%.
The figure for `COc1ccccc1[C@@H](C)C[C@H](NC(=O)c1ccc(-c2ccccc2)cc1)C(=O)NCC#N` is -5.04%.
Consider `CCOc1ccc(OCCSc2nc3ccccc3o2)cc1`, for which the “% Inhibition @ 10 uM” value turned out to be 4.83%.
Turning to `c1ccc2c(CN3CCc4c([nH]c5ccccc45)C3)cccc2c1`, the “% Inhibition @ 10 uM” value is listed as -1.98%.
Turning to `COc1cc(C2C(C#N)=C(N)Oc3[nH]nc(-c4cccs4)c32)cc(OC)c1O` (centres unmarked), the “% Inhibition @ 10 uM” value turned out to be 2.18%.
Consider `CNc1nc2ccccc2n2c(C)nnc12`, for which the “% Inhibition @ 10 uM” value was -6.66%.
The figure for `COc1ccc(OC)c(C2C(C#N)=C(N)Oc3[nH]nc(-c4cccs4)c32)c1` (centres unmarked) is 2.69%; for `O=C(NCc1nc2ccccc2[nH]1)c1nc(-c2ccc(C(F)(F)F)cc2)no1` it is 4.57%.
`CNC1=C(C)C(=O)c2ccccc2C1=O`: the “% Inhibition @ 10 uM” value is listed as 5.03%.
On to `Cc1c(CC(=O)NCCc2ccccc2)c(=O)oc2c(C)c(O)ccc12`, for which the “% Inhibition @ 10 uM” value was determined as 4.13%.
Next, `COc1ccc(-c2c3c(=O)n(C)c(=O)n(C)c3cn2-c2cc(C)ccc2O)cc1`: 2.02%; `CN1CCC2(CC1)N=C(c1ccccc1)C(=S)N2`: 2.97%; `CCNC(=O)/C(C#N)=C/c1c(Oc2ccc(Cl)c(C)c2)nc2c(C)cccn2c1=O`: -3.23%.
The figure for `CCn1cc(C2C3=C(O)CC(c4ccccc4)CC3=NC(C)=C2C(=O)Nc2cc(C)ccn2)cn1` (centres unmarked) is 2.7%; for `CCNc1ncnc2c1oc1ccccc12` it is 0.627%.
For the compound `O=c1c(NC2CCN(Cc3ccccc3)CC2)c(-c2ccccc2)c1=O`, the “% Inhibition @ 10 uM” value is reported as -1.4%.
Regarding `Cc1c2cnn(CC(=O)NCC3CCCO3)c(=O)c2c(C)n1Cc1ccccc1` (centres unmarked), the “% Inhibition @ 10 uM” value is 1.22%.
On to `COc1cc(C2C(C#N)=C(N)Oc3c2c(C)nn3-c2ccccc2)ccc1O` (centres unmarked), for which the “% Inhibition @ 10 uM” value is 7.09%.
Take `CCCCNC(=O)CN(c1cccc(Br)c1)S(C)(=O)=O`: the “% Inhibition @ 10 uM” value came out at 2.44%.
Consider `Cc1ccccc1CNC(=O)CCN1C(=O)c2ccccc2Sc2ncccc21`, for which the “% Inhibition @ 10 uM” value was -0.677%.
As for `COC(=O)C1=C(C)N=c2s/c(=C/C=C/c3ccccc3)c(=O)n2C1c1ccccc1` (centres unmarked), the “% Inhibition @ 10 uM” value is recorded as -4.75%.
The figure for `COc1ccc2nc(NC(=O)c3cc(S(=O)(=O)N4CCOCC4)cn3C)sc2c1` is -3.42%; for `O=C(COc1ccc(Br)cc1)Nc1ccc(S(=O)(=O)Nc2ccc(F)cc2)cc1` it is 4.11%.
In the case of `Cc1ccc2cc3cc(C(=O)N4CCN(Cc5ccccc5)CC4)sc3nc2c1`, the “% Inhibition @ 10 uM” value is 3.07%.
On to `Cc1c(/C=C2/C(=O)NC(=O)N(Cc3ccco3)C2=O)c2ccccc2n1Cc1ccc(F)cc1`, for which the “% Inhibition @ 10 uM” value turned out to be 3.27%.
Next, `O=C(NCc1ccccc1Cl)C1CCCN1S(=O)(=O)c1cccc2nsnc12` (centres unmarked): -0.465%; `CCn1c(C(=O)N2CCC(C(=O)NCCC(C)C)CC2)cc2sccc21`: 92.1%.
Turning to `CCN1C(=O)c2cccc3c(NS(=O)(=O)c4ccc(C)cc4)ccc1c23`, the “% Inhibition @ 10 uM” value is given as -8.12%.
Regarding `Cc1nc2c(c(C)nn2-c2ccccc2)c(C)c1CCC(=O)N1CCN(c2ccccn2)CC1`, the “% Inhibition @ 10 uM” value was -2.45%.
Take `CCOC(=O)C1=C(C)N(C)C(C)=C(C(=O)OCC)C1c1cccs1`: the “% Inhibition @ 10 uM” value is on record as -5.03%.
